Hit rate of the full screen: of about 150,000 compounds, about 540 (0.36%) showed an effect of 50% or more. The list shows a part of the results.

By % Inhibition is commonly meant the drop in the measured response relative to a control, in per cent.

The test relates to Plasmodium falciparum. The experiment in a line: Primary screen in NF54 nanoGlo assay, in single point, at 2uM, 72h; a lower Z score goes with more inhibition. The conditions noted are these: timepoint 72 hour. The test is classed as functional, Erythrocyte.
As for `O=C(c1cncs1)N(Cc1ccc2c(c1)OCO2)Cc1cc2cc3c(cc2nc1N1CCC(O)CC1)CCC3`, the “% Inhibition” value was -17% and the Z score turned out to be 2.16.
For `COCC(=O)N[C@@H]1CN(Cc2nc(C(C)C)ns2)C[C@H]1c1ccnn1C` the same measures were -3% and 0.61.
On the same counts, the results for `O=C(CC1CCCC1)NCc1nnc2ccccn12` are 15% and -1.95.
For `CC(C)C(=O)Nc1ccc(S(=O)(=O)NCC2CCN(c3nccnc3C#N)CC2)cc1` the same measures were -19% and 3.87.
`CC1(C(=O)Nc2n[nH]cc2Br)CC2CCC1O2` (stereo not drawn): the “% Inhibition” value is listed as 4% and the Z score is reported as -0.56.
In the case of `C[C@@H](CC(F)F)C(=O)N1CCC(C)(C)C1`, the “% Inhibition” value is recorded as -4% and the Z score is given as 0.48.
For `Cc1cc(Cl)ccc1CNC1(CO)CC1` the same measures were -4% and 0.42.
Regarding `Cc1ccc(S(=O)(=O)NCC2CCN(c3nc4ccccc4o3)CC2)cc1C`, the “% Inhibition” value is -9% and the Z score came to 1.41.
For `CCOc1ccnc(NCC2(COc3ccccc3)CC2)n1` the same measures were -2% and 0.46.
`O=C(CCNS(=O)(=O)c1ccc(Cl)cc1)N1CCCC1`: the “% Inhibition” value stood at 0% and the Z score was 0.06.
On the same counts, the results for `COc1cccc2nc(C[C@H]3CN(C(=O)c4cccc(F)c4)CC[C@H]3CC(=O)O)[nH]c12` are 0% and 0.07.
On the same counts, the results for `CCN(Cc1nnc(-c2ccccc2)o1)S(=O)(=O)c1cnn(C(F)F)c1C` are -7% and 1.15.
As to `O=C(c1ccccc1)N(Cc1cccc(Cl)c1)Cc1nc2cc(Cl)ccc2o1`, the “% Inhibition” value amounted to 7% and the Z score was -0.73.
On the same counts, the results for `Cc1ncsc1C(=O)N1CCC(n2nccn2)CC1` are 2% and -0.28.
For `CC(C)c1cc(C(=O)N(C)C[C@H]2CCCCO2)no1` the same measures were 7% and -0.91.
For `CC(C)(C)[C@@H](CO)NC(=O)Nc1nnc(C=Cc2ccco2)s1` the same measures were -4% and 0.76.
Turning to `O=C(NC1(C(=O)O)CCC(c2ccccc2)CC1)O[C@H]1CCOC1` (stereo partly drawn), the “% Inhibition” value was -9% and the Z score turned out to be 1.46.
For `O=C(N1CCOCC1)C(F)(F)C(F)(F)C(F)(F)C(F)(F)C(F)(F)C(F)(F)F` the same measures were -8% and 1.23.
Consider `COCCN1C[C@@H](NC(=O)c2ccccc2Cc2ccc(C)cc2)CC1=O`, for which the “% Inhibition” value is reported as -1% and the Z score is 0.24.
On the same counts, the results for `O=C(NCc1nnc2n1CCC2)c1ccc2nc(-c3ccc(F)cc3)cn2c1` are -3% and 0.44.
For `CC(C)C(NC(=O)COc1ccc(Cl)cc1Cl)C(C)C` the same measures were 18% and -2.54.
On the same counts, the results for `CC[C@H](NC(=O)c1cn(Cc2ccccc2F)nn1)c1nc2cc(C)ccc2[nH]1` are -16% and 2.26.
Turning to `CN1O[C@@H](CC(=O)NC2CCCCCC2)N(c2ccc(Cl)cc2)C1=O`, the “% Inhibition” value is recorded as 0% and the Z score is -0.03.
For `CN1CCCCCCN(S(=O)(=O)N(C)C)CCC1=O` the same measures were -12% and 1.57.
Regarding `Nc1ccc(CN2CCn3c(Cc4ccccc4)nnc3C2)cn1`, the “% Inhibition” value is 0% and the Z score came to 0.03.
On the same counts, the results for `Cc1nn(C)cc1NC(=O)[C@@H]1CCCN(C(=O)OC(C)(C)C)[C@@H]1C` are 16% and -1.82.
On the same counts, the results for `COC[C@H](C)NC(=O)c1ccc(Br)cc1` are -7% and 1.17.
On the same counts, the results for `Nc1nccnc1C(=O)Nc1cccc(-c2c[nH]nn2)c1` are 5% and -0.95.
As for `CC(=O)NC(C)(C)C(=O)Oc1ccc(C)cc1Cl`, the “% Inhibition” value was -2% and the Z score is recorded as 0.4.
`CC(C)(C)n1nnnc1[C@@H]1CC2(CCOCC2)C(=O)N1Cc1ccco1`: the “% Inhibition” value is -7% and the Z score was 0.85.
For `O=S(=O)(N1CCCC1)N1CCCc2ccccc2CC1` the same measures were -4% and 0.7.
On the same counts, the results for `c1ccc(-c2cnn3cc(CN(Cc4ccccn4)C4CC4)cnc23)cc1` are 1% and -0.24.
For `CCN1CC2(CCN(C[C@]3(c4cccc(F)c4)CCOC3)CC2)OC1=O` the same measures were -12% and 1.47.
Take `NC(=O)c1cc2c(nc1N1CC[C@@]3(CCCN(CC4CCC4)C3=O)C1)CCC2`: the “% Inhibition” value was 8% and the Z score is recorded as -1.14.
On the same counts, the results for `CCc1nc2cc(NC(=O)[C@@H]3CCCCN3C(=O)c3ccccc3)ccc2n1CC` are -19% and 2.81.
For `COc1cc(CN2CC[C@H](S(=O)(=O)N3CCCC3)C2)ccc1C` the same measures were -8% and 1.17.
For `Cc1ccc(C(N)=O)cc1NCCc1cccs1` the same measures were -9% and 1.73.
With `O=C1C2CC=CCC2C(=O)N1CNc1cccc(Cl)c1` (stereo not drawn), the “% Inhibition” value is reported as -9% and the Z score turned out to be 1.52.
For `CC(C)C(=O)N1CCC(Nc2ccc3nnnn3n2)CC1` the same measures were -10% and 1.98.
As to `Cc1nc(C(C)C)oc1CNC(=O)[C@@H]1CN(C)C(=O)N1`, the “% Inhibition” value is reported as 0% and the Z score is -0.08.
On the same counts, the results for `CCc1ccccc1S(=O)(=O)N1CC[C@@]2(CCC(=O)N2C)C1` are -6% and 0.86.
On the same counts, the results for `COc1ccc(S(=O)(=O)c2c(N)n(CC(C)C)c3nc4ccccc4nc23)cc1` are 0% and 0.03.
On the same counts, the results for `COc1ccc(S(=O)(=O)C2CCN(C(=O)CN3C(=O)CCC3=O)CC2)cc1` are -22% and 2.88.
With `CC(C)Oc1ccc(CNC(=O)[C@H]2C[C@H]3CCCN3[C@@]23C(=O)Nc2ccccc23)cc1`, the “% Inhibition” value is on record as 7% and the Z score is given as -0.67.
For `CCCn1nc(C(=O)O)c2c1CC[C@H](N1CCN(Cc3ccccn3)CC1)C2` the same measures were 6% and -0.83.
On the same counts, the results for `CCc1noc(C)c1C(=O)Nc1cccc(C(=O)NC2CC2)c1` are -6% and 1.06.
For `Cc1nc2c(c(N[C@H]3C[C@H](c4cc(=O)[nH]c(C)n4)C3)n1)CCC2` the same measures were 5% and -0.57.
For the compound `CC(C)n1cncc1CN(C)[C@@H](C)c1ccon1`, the “% Inhibition” value is on record as 19% and the Z score is listed as -2.11.
On the same counts, the results for `O=C(c1ccsc1)N1CC[C@H](N2CCc3ccccc3C2)C1` are 3% and -0.39.
For `Cc1nc(C(=O)NC2(C(N)=O)CCCC2)cs1` the same measures were -8% and 1.62.
For `CC(C)c1cc(C(=O)N[C@@H]2COCC[C@@H]2OCC2CC2)nc(N)n1` the same measures were -2% and 0.14.
For the compound `CC1CCCC(NC(=O)CN2CCN(C3CC3)CC2)C1C` (stereo not drawn), the “% Inhibition” value is -3% and the Z score turned out to be 0.53.
On the same counts, the results for `CC(=O)Nc1ccc(OCC(=O)N2CCC(C)CC2)nc1` are 6% and -1.11.
For `CS(=O)(=O)N1CCN(C(=O)[C@@H]2CCCn3c(-c4ccccc4)cnc32)CC1` the same measures were -6% and 0.86.

(Values after ChEMBL document CHEMBL4888484, “Replenishing the malaria drug discovery pipeline: Screening and hit evaluation of the MMV Hit Generation Library 1 (HGL1) against asexual blood stage Plasmodium falciparum ,using a nano luciferase reporter read-out” (2022).)
